From the supplement of paper PMC9174493
Some of the results follow. Single values of this set are uncertain. Values with irradiation are relative to irradiated vehicle.

test system: A549-Dual; assay: ISRE reporter (Lucia luciferase) activity, viability-corrected, relative to vehicle (fold change vs vehicle); higher = more activation of STING-IRF / NF-kB immune response reporter; details: 10 µM; irradiation: 8 Gy/4 fr

Row | Compound | ISRE reporter
1 | CCCCC1(COC(=O)CCC(=O)O)C(=O)N(c2ccccc2)N(c2ccccc2)C1=O [Suxibuzone] | 1.13
2 | CS(=O)(=O)Nc1cc2occ(NC=O)c(=O)c2cc1Oc1ccccc1 [Iguratimod] | 0.326
3 | COc1cc2nccc(Oc3ccc(NC(=O)Nc4cc(C)on4)c(Cl)c3)c2cc1OC [Tivozanib (AV-951)] | 0.53
4 | Cc1ccc(S(=O)(=O)O)cc1.NC(=O)c1cccc2cn(-c3ccc(C4CCCNC4)cc3)nc12 (stereo unspecified) [Niraparib (MK-4827) tosylate] | 0.733
5 | CC(C)OC(=O)CCC/C=C\CC1C(O)CC(O)C1CCC(O)CCc1ccccc1 (stereo unspecified) [Latanoprost] | 0.457
6 | O=c1[nH]cc(F)c(=O)[nH]1 [Fluorouracil (5-Fluoracil, 5-FU)] | 0.606
7 | CC1(C(=O)O)CCC2(C)CCC3(C)C(=CC(=O)C4C5(C)CCC(OC6OC(C(=O)O)C(O)C(O)C6OC6OC(C(=O)O)C(O)C(O)C6O)C(C)(C)C5CCC43C)C2C1.N.N (stereo unspecified) [Diammonium Glycyrrhizinate] | 0.899
8 | CC1(C)CCC(CN2CCN(c3ccc(C(=O)NS(=O)(=O)c4ccc(NCC5CCOCC5)c([N+](=O)[O-])c4)c(Oc4cnc5[nH]ccc5c4)c3)CC2)=C(c2ccc(Cl)cc2)C1 [Venetoclax (ABT-199, GDC-0199)] | 0.364
9 | CCN(CC)Cc1cc(Nc2ccnc3cc(Cl)ccc23)ccc1O.Cl.Cl [Amodiaquine hydrochloride] | 1.45
10 | CCN(C(=O)c1c(O)c2c(Cl)cccc2n(C)c1=O)c1ccccc1 [Laquinimod] | 0.446
11 | O=C(c1ccc(OCCN2CCCCC2)cc1)c1c(-c2ccc(O)cc2)sc2cc(O)ccc12 [Raloxifene] | 0.982
